Assay results published in article PMC4336329 (PLoS ONE, 2015).
Among all 310,000 compounds or so, about 2,200 (0.71%) showed an effect of 50% or more. Effects have a minus sign here. The list shows a part of the results.

target: human ether-à-go-go-related gene (hERG) potassium channel (human, UniProt Q12809); assay: primary screen, population patch clamp on CHO cells stably expressing hERG
Sequence (Q12809 whole entry, looked up): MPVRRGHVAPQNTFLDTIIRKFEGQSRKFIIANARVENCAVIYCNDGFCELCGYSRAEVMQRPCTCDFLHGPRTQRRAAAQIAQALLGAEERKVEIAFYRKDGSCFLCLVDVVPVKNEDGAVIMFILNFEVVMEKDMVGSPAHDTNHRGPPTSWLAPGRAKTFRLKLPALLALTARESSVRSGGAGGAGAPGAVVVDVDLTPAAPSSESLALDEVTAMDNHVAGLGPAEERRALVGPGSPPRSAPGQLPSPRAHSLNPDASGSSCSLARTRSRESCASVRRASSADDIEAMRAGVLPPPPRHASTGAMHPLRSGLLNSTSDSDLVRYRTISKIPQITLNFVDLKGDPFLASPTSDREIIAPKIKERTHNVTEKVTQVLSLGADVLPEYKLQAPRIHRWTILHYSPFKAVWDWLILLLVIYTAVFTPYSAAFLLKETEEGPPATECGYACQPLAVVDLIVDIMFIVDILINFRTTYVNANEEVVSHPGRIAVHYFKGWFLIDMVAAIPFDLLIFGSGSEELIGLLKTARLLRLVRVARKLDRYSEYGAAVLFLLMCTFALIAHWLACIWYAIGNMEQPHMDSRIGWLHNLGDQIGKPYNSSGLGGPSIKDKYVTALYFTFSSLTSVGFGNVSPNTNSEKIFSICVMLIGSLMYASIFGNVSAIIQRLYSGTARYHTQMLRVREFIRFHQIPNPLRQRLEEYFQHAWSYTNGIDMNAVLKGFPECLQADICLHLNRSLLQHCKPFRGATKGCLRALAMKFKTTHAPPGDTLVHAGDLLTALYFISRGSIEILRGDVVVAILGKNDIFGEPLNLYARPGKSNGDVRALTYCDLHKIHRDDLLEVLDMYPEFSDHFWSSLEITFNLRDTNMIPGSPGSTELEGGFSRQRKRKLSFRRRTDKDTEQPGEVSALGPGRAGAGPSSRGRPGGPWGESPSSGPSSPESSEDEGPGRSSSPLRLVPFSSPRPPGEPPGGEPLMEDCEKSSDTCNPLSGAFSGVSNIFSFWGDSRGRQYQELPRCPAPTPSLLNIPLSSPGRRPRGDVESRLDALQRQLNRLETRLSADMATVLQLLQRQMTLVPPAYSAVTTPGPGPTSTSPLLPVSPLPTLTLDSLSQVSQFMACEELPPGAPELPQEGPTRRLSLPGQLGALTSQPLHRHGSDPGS

| Compound | hERG current change (%, negative = inhibition) at 1uM [%] |
| --- | --- |
| Cc1ccc(-c2nc(C3CCN(S(=O)(=O)c4ccc(C(C)(C)C)cc4)CC3)no2)cc1 | 14.4 |
| CN1CCN(C(=O)c2cn(-c3ccccc3)nc2-c2cccs2)CC1 | 3.79 |
| Cn1c(=O)c2c(nc(NCCOc3ccc(F)cc3)n2C)n(C)c1=O | 1.51 |
| N#Cc1c(NC(=O)CSc2nc3c(c(C(F)(F)F)n2)CCc2ccccc2-3)sc2c1CCCC2 | -5.59 |
| CCOC(=O)N1CCC(NCCNC(=O)c2ccco2)CC1.O=C(O)C(=O)O | 12.6 |
| COc1cc(NC(=O)Nc2ccccc2OC)c(OC)cc1NC(=O)CN1CCCCC1 | 15.2 |
| CCn1ccnc1CN(C)Cc1nc(-c2ccc(C(=O)OC)cc2)no1 | 3.41 |
| O=S(=O)([O-])c1cc(OS(=O)(=O)c2ccccc2)cc2ccccc12.[Na+] | 17.8 |
| Cc1cccc(NC(=O)CSc2nnc(C3CC3)n2CC2CCCO2)c1 (centres unmarked) | 10.2 |
| Cc1cc2c(cc1S(=O)(=O)Nc1cccc(F)c1C)NC(=O)CO2 | 12 |
| COc1ccc(C(C(=O)NC2CCCC2)N(C(=O)c2ccoc2C)c2ccc(C)cc2)cc1 (centres unmarked) | -2.57 |
| Cc1cc(Cl)ccc1OCC(=O)NNC(=O)c1cccnc1 | 14.5 |
| COc1ccccc1NC(=S)N(CCN1CCOCC1)Cc1ccccc1F | 10.9 |
| O=C1/C(=C/c2cccnc2)SC(=S)N1c1ccccc1 | 16.4 |
| Cc1c(CC(=O)N2CCN(C(=O)C3COc4ccccc4O3)CC2)c(=O)oc2cc(O)c(Cl)cc12 (centres unmarked) | 0.833 |
| COc1ccc(C(=O)NC(=S)Nc2ccc([N+](=O)[O-])cc2C)cc1OC | -6.85 |
| CC(C)(C)c1ccc(C(=O)Nc2ccc(NC(=O)c3ccco3)cc2)cc1 | 5.63 |
| COc1cc2c(=O)n(Cc3ccccc3)c(=O)n(CC(=O)C(C)(C)C)c2cc1OC | -0.726 |
| O=C1S/C(=C\c2ccc(N3CCOCC3)o2)C(=O)N1Cc1c(F)cccc1Cl | 6.4 |
| CCOC(=O)c1sc(NC(=S)NC(=O)C2CC2)cc1C | 14.4 |
| CCCNC(=O)Cn1cnc2sc(C(=O)N3CCC4(CC3)OCCO4)c(C)c2c1=O | 13.4 |
| Cc1ccccc1Nc1nnc(SCc2cc(=O)n3ccsc3n2)s1 | 2.8 |
| COc1ccccc1Nc1nc(N(C)c2ccccc2)nc(N)c1[N+](=O)[O-] | 8.5 |
